Some of the results follow. The list includes weakly bound sequences.

For this experiment, the target named is MaxL homodimer (UniProt P61244). As to the kind of experiment: universal protein-binding microarray (PBM). As to conditions: PBS-based mixture, 10 nM His-tagged protein dimer, 2% milk, 200 ng/uL BSA, 50 ng/uL salmon testes DNA, 0.02% TX-100; detection with Alexa 488 anti-His …; high values mean tight binding; most listed sequences are background and not binding sites; double strand, one strand shown.
UniProt P61244, sequence (P61244 whole entry): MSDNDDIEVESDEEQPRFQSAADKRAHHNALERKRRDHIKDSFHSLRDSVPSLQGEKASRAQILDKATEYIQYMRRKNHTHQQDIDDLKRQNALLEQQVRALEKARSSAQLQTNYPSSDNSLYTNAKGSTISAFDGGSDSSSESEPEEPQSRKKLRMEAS
On to ACAATAAC, for which the binding signal (normalized occupancy) was 0.0762. Under GGTGGGTA stands 0.0949. Regarding GAATTCCC, the binding signal (normalized occupancy) is 0.0736.

On to ATCGGGCA, for which the binding signal (normalized occupancy) is 0.0728. Under AGCGCTGA stands 0.0686; under CCCATGAC, 0.0853. As for ACGATGCA, the figure is 0.0775; as for AAGTATGA, 0.082. Under ATCAGTTA stands 0.0738; under GGGGGTTA, 0.0813; under TAACCTTA, 0.0726. As to CGGTAACG, the binding signal (normalized occupancy) is 0.0685. Under TGACGGAA stands 0.0786; under CATTAGAA, 0.0752; under AACGTGCG, 0.108. As for CGAAACAA, the figure is 0.0702; as for AAATCGTC, 0.0678. As for CGTGCTAG, the figure is 0.0952; as for CCCGTATC, 0.0739. Regarding AAAGGTCC, the binding signal (normalized occupancy) turned out to be 0.071. Under CATGAAAC stands 0.0762. Under GACTAGGA stands 0.0732. For the sequence ACAAAGTG, the binding signal (normalized occupancy) came to 0.0721.

For the sequence CATCTCCG, the binding signal (normalized occupancy) was 0.0747. As for CTCCCAGA, the figure is 0.0739; as for AACCTATA, 0.0782; as for ACCTGTAG, 0.0736. As for AATTGCCT, the figure is 0.0718. Under AATTGGGC stands 0.0747. On to AGAGTTGA, for which the binding signal (normalized occupancy) amounted to 0.0682. Take AAGGGTAA: the binding signal (normalized occupancy) was found to be 0.0788. Under AAAACCTT stands 0.0713; under AGTGCTGG, 0.0689; under AAAATTCT, 0.0763. As for AGAAGCTG, the figure is 0.0694; as for CGTTAAGA, 0.0717. As for CTAAGAAA, the binding signal (normalized occupancy) amounted to 0.0728.

For AAAAAAGG, the binding signal (normalized occupancy) came to 0.0707.

ATGCACTG: the binding signal (normalized occupancy) was determined as 0.0781. Under ACTCTCTG stands 0.0705. With GGCTTTTA, the binding signal (normalized occupancy) came to 0.0758. Under TCAGTCGA stands 0.0692; under ACGTACCT, 0.0783. As for AGTTCCCG, the figure is 0.074; as for ACCCTATA, 0.0812. As for CCACTACA, the binding signal (normalized occupancy) was found to be 0.0783.

Turning to GGGTATAC, the binding signal (normalized occupancy) amounted to 0.0791. Under GGCGCGCA stands 0.0732; under ATGGCTGA, 0.0827. As for ACAGCAGT, the figure is 0.0689; as for AAGTAGCA, 0.0743; as for GCAGCATA, 0.0824.

With ATGCACCA, the binding signal (normalized occupancy) was determined as 0.0799.

Turning to CGTAACCA, the binding signal (normalized occupancy) was found to be 0.0757. As for GTCCGGGA, the figure is 0.0696; as for ACACCAAT, 0.0759; as for AAATTACG, 0.0788. Under AAACATAT stands 0.0797. As for ACTCGGCT, the figure is 0.065. For CTGCGTCC, the binding signal (normalized occupancy) stood at 0.0696. As for AATCGTGG, the figure is 0.0832; as for ACTTGCTG, 0.0711. As for CTACTCTC, the figure is 0.0754. With CTCAGAGC, the binding signal (normalized occupancy) was found to be 0.0747. Under AGAATACA stands 0.0787.

With ACTTAAGG, the binding signal (normalized occupancy) is 0.0739.

As to ATCCACAG, the binding signal (normalized occupancy) turned out to be 0.078.

For the sequence CCACTCTC, the binding signal (normalized occupancy) turned out to be 0.075. As for GCGGTTAA, the figure is 0.072; as for CTTTGACC, 0.0868; as for TATGCACA, 0.0883. Under CGCGCCCA stands 0.0739; under GAGAGTAC, 0.073; under CCACCTCG, 0.0794. As for GCCGCTAA, the figure is 0.0662. Consider ACTTTAGG, for which the binding signal (normalized occupancy) was found to be 0.073. As to AGCAGCCA, the binding signal (normalized occupancy) came out at 0.0738. Under AGGTGGCA stands 0.082; under CACTTTGC, 0.0696. As for CCAACTGC, the figure is 0.0709; as for AGCCCGTG, 0.0746. Under CAAGCATG stands 0.105; under ACCACCTG, 0.106. As for CATCCTGA, the binding signal (normalized occupancy) came to 0.0746. In the case of GTCCGTGA, the binding signal (normalized occupancy) came to 0.0756. Consider ACTTACCA, for which the binding signal (normalized occupancy) came out at 0.0778. Take ACACAAAT: the binding signal (normalized occupancy) was 0.0826. AGTTTGAC: the binding signal (normalized occupancy) came out at 0.0699. With CATAATTC, the binding signal (normalized occupancy) stood at 0.082.

GCAAGTAC: the binding signal (normalized occupancy) came to 0.0746. With CGGATAAG, the binding signal (normalized occupancy) is 0.0773. As for ACACGCGG, the figure is 0.143; as for AATCGGGG, 0.0779; as for CCTGCAAG, 0.0724. As for CCGACTTA, the figure is 0.0735. As for ATTTCAGC, the figure is 0.0717; as for ATTTTCCG, 0.0693; as for GCTTCTCA, 0.0754.

Consider AAGTATCA, for which the binding signal (normalized occupancy) came to 0.0801. On to CAATGCGA, for which the binding signal (normalized occupancy) stood at 0.0774. Under ATCATAAA stands 0.0777; under AGAACGGC, 0.0679. For the sequence ATAATGAC, the binding signal (normalized occupancy) was 0.0804. As for CATAATCG, the figure is 0.0831; as for GACGTTGA, 0.0764. In the case of AATTGTCA, the binding signal (normalized occupancy) worked out at 0.0762. Under AAAATCTG stands 0.0747; under GACACTGC, 0.0711; under CAAGGCCC, 0.0714. Under CCACGAGA stands 0.1; under GAGGCAGC, 0.0729; under AATTACAT, 0.0715. Under GGACTCTA stands 0.0778; under GGAAGGTA, 0.0851; under CGGCGTTA, 0.0725. Consider AGCGTAGC, for which the binding signal (normalized occupancy) was 0.0653.

Consider ACGGGACT, for which the binding signal (normalized occupancy) came to 0.0695. With AGTAAAAC, the binding signal (normalized occupancy) turned out to be 0.073. Under ATATAGAG stands 0.0887. As for ACGAGATA, the figure is 0.0815; as for CTACGGTC, 0.0697; as for CGGTCAGA, 0.0721.

GGTCCAGA: the binding signal (normalized occupancy) stood at 0.0759.

As for GCCCTTTA, the binding signal (normalized occupancy) came out at 0.0709. Under GACCAGCC stands 0.0695; under CTACGATA, 0.0797. For GAAGCTGC, the binding signal (normalized occupancy) was found to be 0.066.

On to ACGCCACT, for which the binding signal (normalized occupancy) came to 0.0784. For ATTCGACC, the binding signal (normalized occupancy) turned out to be 0.0704. For CTGAAGCC, the binding signal (normalized occupancy) was determined as 0.0704. Under CAGGGGAA stands 0.0739; under GAGGTAAA, 0.0706; under GTAAAGTA, 0.0801. As for TCAATGCA, the binding signal (normalized occupancy) is 0.0838. Regarding CAGCGCGC, the binding signal (normalized occupancy) is 0.0795. Under CATACAGG stands 0.0807; under GCACCATA, 0.0825. As for GATCGACC, the figure is 0.0678; as for AGGTTGAT, 0.0814; as for CGTCCGCA, 0.0777. Under GACGAGTA stands 0.0683; under CACCGTCG, 0.0721; under AGGCACGC, 0.0914.

As for GAGCCTGA, the binding signal (normalized occupancy) worked out at 0.0681. In the case of CAGGCTAC, the binding signal (normalized occupancy) amounted to 0.0751. Under CGGGGCAG stands 0.0705; under ACATTTCA, 0.0787; under CACCGTAA, 0.0762.

Take AACAGGGA: the binding signal (normalized occupancy) is 0.0709.

For the sequence ATGGTTTA, the binding signal (normalized occupancy) is 0.0814. As for CGCTTTTC, the binding signal (normalized occupancy) was 0.0678. As for CGCCTGCA, the figure is 0.0753; as for CCTTCCAA, 0.073; as for CCTAAACG, 0.0698.

GATATAAC: the binding signal (normalized occupancy) turned out to be 0.08. As for GGTATTGA, the figure is 0.0764. In the case of CCAGAAGC, the binding signal (normalized occupancy) came out at 0.07. As for GGATAGCC, the figure is 0.0768; as for GATGGGGC, 0.0757. Under GGAGGCCC stands 0.0652. Regarding ACGGTAGG, the binding signal (normalized occupancy) was 0.0711.

Consider CTAGAGAG, for which the binding signal (normalized occupancy) was determined as 0.0688. As for CAGCACGA, the figure is 0.0909.

As to AAGCATCG, the binding signal (normalized occupancy) was 0.07. As for CACAGAAG, the figure is 0.0695; as for GACGGTAC, 0.0707. As to CATTGAAG, the binding signal (normalized occupancy) stood at 0.0779. Regarding GGAGTACA, the binding signal (normalized occupancy) amounted to 0.0797. For GCCCCAAC, the binding signal (normalized occupancy) was found to be 0.0763. Under AGATTCAG stands 0.0696; under CCGTCTGC, 0.0693. As for AATAGCAC, the figure is 0.0801.

The record behind these values is article PMC4242493.
